Among the data in the supplement of paper PMC5919970 are fractional viability values, retold here.

For this assay, the system named is TYKNU. The experiment in a line: fractional viability relative to vehicle; TYKNU is a high-grade serous ovarian cancer line; higher = less growth inhibition. To be noted: 72 h, genotype: OPA1 knockout (sgOPA1 #2). Summed up: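 TYKNU control cells or lentiCRISPRv2 knockout derivatives were plated at 500 cells per well in duplicate into drug-stamped 384-well plates holding a ~2100-compound library at 2 or 10 μM. Culture was in RPMI 1640 with 10% FBS at 37 °C in 5% CO2, with 72 h of drug treatment. Viability was measured by Cell Titer Glo luminescence, and the averaged duplicate treatment wells were normalised to duplicate control wells at the same plate position.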

Molecules are shown by their SMILES. Structures can show the parent of a compound that is named as a salt. Whole data set: some 2,000 compounds, median “fractional viability relative to vehicle” near 0.92, cut for the lowest 2% near 0.11. The list shows a part of the results.

Turning to `COC(=O)C1=CO[C@@H](O)[C@@H]2C(CO)=CC[C@H]12` [Genipin], the fractional viability reads like this: (2uM) 1.03; (10uM) 0.69.

In the case of `Cc1nc(C(=O)NCC(=O)O)c(O)c2ccc(Oc3ccccc3)cc12`, the fractional viability was determined as 1.11 (2uM) and 1.04 (10uM).

In the case of `CCCCCCNC(=O)n1cc(F)c(=O)[nH]c1=O` [Carmofur], the fractional viability was 1.38 (2uM) and 1.12 (10uM).

`CC(O)c1cc(C(=O)N[C@@H](C)Cn2ccc(-c3ccc(C#N)c(Cl)c3)n2)n[nH]1` (some centres undefined): the fractional viability runs as follows: (2uM) 0.945; (10uM) 1.06.

On to `CC(C)[C@H](N)C(=O)OCCOCn1cnc2c(=O)nc(N)[nH]c21` [Valaciclovir HCl], for which the fractional viability (2uM) turned out to be 1.18 and the fractional viability (10uM) was found to be 0.943.

`CN1CCN2c3ncccc3Cc3ccccc3C2C1` (centres undefined) [Mirtazapine] came in with a fractional viability (2uM) of 0.953 and a fractional viability (10uM) of 1.04.

`CC[C@H](NC(=O)[C@H](C)NC)C(=O)N1C[C@@H](O)C[C@H]1Cc1c(-c2[nH]c3cc(F)ccc3c2C[C@@H]2C[C@H](O)CN2C(=O)[C@H](CC)NC(=O)[C@H](C)NC)[nH]c2cc(F)ccc12` [Birinapant]: the fractional viability came to 0.726 (2uM) and 0.502 (10uM).

Regarding `CC(C)N(CC[C@H](c1ccccc1)c1cc(CO)ccc1O)C(C)C`, the fractional viability is 0.904 (2uM) and 1.01 (10uM).

On to `CC(C)(Oc1ccc(Cl)cc1)C(=O)OCCOC(=O)c1cccnc1` [Etofibrate], for which the fractional viability (2uM) was 0.96 and the fractional viability (10uM) amounted to 0.914.

Regarding `Cc1cc(C)nc(NS(=O)(=O)c2ccc(N)cc2)n1` [Sulfamethazine], the fractional viability reads like this: (2uM) 0.84; (10uM) 1.07.

With `CC1(C)O[C@@H]2C[C@H]3[C@@H]4C[C@H](F)C5=CC(=O)C=C[C@]5(C)[C@@]4(F)[C@@H](O)C[C@]3(C)[C@]2(C(=O)CO)O1` [Fluocinolone Acetonide], the fractional viability is, setting by setting: (2uM) 1.03; (10uM) 1.1.

`CCn1c(=O)c2c(nc(/C=C/c3ccc(OC)c(OC)c3)n2C)n(CC)c1=O` [Istradefylline]: the fractional viability turned out to be 1.39 (2uM) and 1.27 (10uM).

For `CC1=NN(c2ccc(C)c(C)c2)C(=O)/C1=N\Nc1cccc(-c2cccc(C(=O)O)c2)c1O` [Eltrombopag Olamine], the fractional viability is 1.26 (2uM) and 0.875 (10uM).

For `CC1=NN(c2ccc(C)c(C)c2)C(=O)/C1=N\Nc1cccc(-c2cccc(C(=O)O)c2)c1O` [Eltrombopag], the fractional viability is, setting by setting: (2uM) 1.13; (10uM) 0.802.

On to `C[C@@H]1C/C=C/C=C/C=C/C=C/[C@H](O[C@@H]2O[C@H](C)[C@@H](O)[C@H](N)[C@@H]2O)C[C@@H]2O[C@](O)(C[C@@H](O)C[C@H]3O[C@@H]3/C=C/C(=O)O1)C[C@H](O)[C@H]2C(=O)O` [Natamycin], for which the fractional viability is, setting by setting: (2uM) 1.28; (10uM) 0.954.

For the molecule `CC(C(O)c1ccc(O)cc1)N1CCC(Cc2ccccc2)CC1` (centres undefined) [Ifenprodil Tartrate], the fractional viability is, setting by setting: (2uM) 1.05; (10uM) 0.925.

`C[C@H]1[C@H](C)CC[C@]2(C(=O)O)CC[C@]3(C)C(=CC[C@@H]4[C@@]5(C)CC[C@H](O)C(C)(C)[C@@H]5CC[C@]43C)[C@H]12` [Ursolic Acid] yielded a fractional viability (2uM) of 1.02 and a fractional viability (10uM) of 0.908.

Molecule `NC(=O)Nc1cc(-c2cccc(F)c2)sc1C(=O)N[C@H]1CCCNC1` registered a fractional viability (2uM) of 0.659 and a fractional viability (10uM) of 0.255.

As to `O=C(c1ccc(F)cc1)C1CCN(CCn2c(=O)[nH]c3ccccc3c2=O)CC1` [Ketanserin], the fractional viability is 0.912 (2uM) and 1.09 (10uM).

On to `C[C@H]1CO[C@@H]2Cn3cc(C(=O)NCc4ccc(F)cc4F)c(=O)c(O)c3C(=O)N12`, for which the fractional viability reads like this: (2uM) 0.871; (10uM) 0.706.

The molecule `Nc1nccc(Oc2ccc(NC(=O)c3c[nH]cc(-c4ccc(F)cc4)c3=O)cc2F)c1Cl` yielded a fractional viability (2uM) of 1.07 and a fractional viability (10uM) of 1.02.

For `CCS(=O)(=O)N1CC(CC#N)(n2cc(-c3ncnc4[nH]ccc34)cn2)C1`, the fractional viability is, setting by setting: (2uM) 1.06; (10uM) 1.06.

Turning to `O=C1NCC2(CCN(CCc3ccccc3)CC2)O1` [Fenspiride HCl], the fractional viability came to 1.08 (2uM) and 0.919 (10uM).

`Clc1ccc2c(c1)CCc1cccnc1C2=C1CCNCC1` [Desloratadine]: the fractional viability is, setting by setting: (2uM) 1.06; (10uM) 0.876.

For the molecule `O=C(O)CCc1ccc(NCc2cccc(Oc3ccccc3)c2)cc1`, the fractional viability came out at 0.801 (2uM) and 0.884 (10uM).

Regarding `CO[C@H]1/C=C/O[C@@]2(C)Oc3c(C)c(O)c4c(O)c(c5c(nc6cc(C)ccn65)c4c3C2=O)NC(=O)/C(C)=C\C=C\[C@H](C)[C@H](O)[C@@H](C)[C@@H](O)[C@@H](C)[C@H](OC(C)=O)[C@@H]1C` [Rifaximin], the fractional viability is, setting by setting: (2uM) 1.17; (10uM) 0.924.

With `C[C@]12C=CC(=O)N[C@@H]1CC[C@@H]1[C@@H]2CC[C@]2(C)[C@@H](C(=O)Nc3cc(C(F)(F)F)ccc3C(F)(F)F)CC[C@@H]12` [Dutasteride], the fractional viability by setting is: (2uM) 0.985; (10uM) 0.91.

In the case of `Clc1cccc(Cl)c1NC1=NCCN1` [Clonidine HCl], the fractional viability came to 0.839 (2uM) and 0.785 (10uM).

For the molecule `CN(C)S(=O)(=O)c1ccc2c(c1)/C(=C/c1cc3c([nH]1)CCCC3)C(=O)N2`, the fractional viability worked out at 0.929 (2uM) and 0.283 (10uM).

For `Cn1ncnc1[C@H]1c2n[nH]c(=O)c3cc(F)cc(c23)N[C@@H]1c1ccc(F)cc1`, the fractional viability reads like this: (2uM) 0.905; (10uM) 0.986.

As for `Cc1cnc(Nc2ccc(OCCN3CCCC3)cc2)nc1Nc1cccc(S(=O)(=O)NC(C)(C)C)c1`, the fractional viability is, setting by setting: (2uM) 0.482; (10uM) 0.129.

Take `COc1ccc(Cl)c(Nc2nc3ccccc3nc2NS(=O)(=O)c2cccc(NC(=O)C(C)(C)N)c2)c1` [Pilaralisib (XL147)]: the fractional viability runs as follows: (2uM) 0.857; (10uM) 0.766.
